In the supplement of paper PMC12217912:
Some of the results follow. The full chains were built here from the parent and the listed change. Values near 0.05 are background.

B1: TEV protease; numbered along this chain (parent)
chain: MGESLFKGPRDYNPISSSICHLTNESDGHTTSLYGIGFGPFIITNKHLFRRNNGTLVVQSLHGVFKVKDTTTLQQHLVDGRDMIIIRMPKDFPPFPQKLKFREPQREERICLVTTNFQTKSMSSMVSDTSCTFPSGDGIFWKHWIQTKDGQCGSPLVSTRDGFIVGIHSASNFTNTNNYFTSVPKNFMELLTNQEAQQWVSGWRLNADSVLWGGHKVFMVKPEEPFQPVKEATQL

Variants of: B1
Test: raw area under fraction-flipped curve 0-4 h after induction (AUC4h, not background-subtracted), DNA-recorder readout of cleavage of the substrate (dimensionless); higher = more cleavage of the substrate by the protease variant
Conditions: temperature: 34 °C; time window: 0-4 h after rhamnose induction
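Also: Bxb1 expression induced with 0.2% (w/v) L-rhamnose at OD600 near 0.5, cultures sampled hourly, flipped fraction per protease–substrate barcode pair counted by paired-end Illumina sequencing.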

Variant | area with substrate ENDYFQS | area with substrate ENEYFQS | area with substrate ENFYFQS | area with substrate ENHYFQS | area with substrate ENMYFQS | area with substrate ENQYFQS | area with substrate ENTYFQS | area with substrate ENVYFQS | area with substrate ENNYFQS | area with substrate ENRYFQS
E195H | 0.0348 | 0.0814 | 0.0661 | 0.0448 | 0.0802 | 0.0632 | 0.0522 | 0.0827 | – | –
Q198P | 0.0565 | 0.0581 | 0.0425 | 0.0895 | 0.0639 | 0.0449 | 0.0545 | – | 0.0714 | 0.0556
N206P | 0.04 | 0.0354 | – | – | – | 0.0661 | – | 0.0742 | 0.0672 | 0.0438
L211I | 0.0691 | – | 0.0336 | – | – | – | – | 0.0741 | 0.0516 | –
W212A | 0.0496 | – | – | – | – | – | – | – | – | –
G214F | 0.0564 | 0.0643 | – | – | – | – | – | – | – | –
V217E | 0.0648 | – | 0.0514 | – | – | 0.0554 | – | 0.0619 | 0.0704 | 0.0913
T233P | 0.0579 | 0.0565 | – | 0.0758 | – | 0.0657 | – | – | – | –
G2S | – | 0.0742 | – | – | – | 0.0485 | – | – | – | –
F6A | – | 0.0626 | – | – | – | 0.0723 | – | 0.0684 | 0.07 | –
V57E | – | 0.066 | – | 0.0681 | – | 0.0572 | 0.058 | – | – | 0.0504
H76G | – | 0.0725 | – | – | – | 0.0632 | 0.0554 | – | – | –
D82M | – | 0.0698 | 0.0575 | 0.0563 | 0.0514 | 0.0559 | – | 0.0558 | 0.0693 | –
I86C | – | 0.0858 | – | – | 0.0041 | 0.0648 | 0.0555 | – | 0.0383 | 0.0664
F92G | – | 0.0713 | – | – | – | 0.0588 | – | – | – | –
F92K | – | 0.0651 | 0.0525 | – | – | – | 0.0613 | – | 0.0504 | 0.0952
Q97G | – | 0.0498 | – | – | – | – | – | 0.0953 | – | –
Q97L | – | 0.0575 | 0.0543 | – | – | 0.0583 | – | – | – | –
L99K | – | 0.0412 | – | – | – | – | 0.0623 | – | – | –

Variant | area with substrate ENDYFQS | area with substrate ENEYFQS | area with substrate ENFYFQS | area with substrate ENHYFQS | area with substrate ENMYFQS | area with substrate ENQYFQS | area with substrate ENTYFQS | area with substrate ENVYFQS | area with substrate ENNYFQS | area with substrate ENRYFQS
D128T | – | 0.0509 | 0.042 | – | – | 0.0554 | – | 0.0794 | 0.0423 | –
S135L | – | 0.0783 | – | – | – | – | – | – | – | –
G138P | – | 0.056 | – | – | 0.0549 | – | – | – | 0.0484 | 0.0717
I139T | – | 0.0816 | – | – | – | 0.0664 | – | 0.0866 | 0.062 | 0.0622
S171K | – | 0.0629 | 0.0433 | 0.0601 | 0.0612 | – | – | – | 0.02 | 0.0578
N186H | – | 0.0705 | – | – | – | – | 0.054 | – | – | –
V200D | – | 0.051 | – | – | – | – | – | 0.0568 | – | –
L205Y | – | 0.0595 | 0.0474 | 0.0546 | 0.0585 | 0.0618 | 0.0619 | – | 0.0716 | 0.0468
S209W | – | 0.0343 | – | 0.0401 | – | – | – | – | 0.0729 | –
S209Y | – | 0.0556 | – | 0.037 | – | 0.0388 | 0.0654 | – | – | 0.0284
G213T | – | 0.0484 | 0.0625 | 0.0513 | – | 0.06 | 0.0607 | – | 0.063 | 0.0537
V220S | – | 0.0556 | – | 0.0587 | 0.088 | 0.0637 | – | 0.0551 | – | –
F226V | – | 0.0623 | 0.0602 | – | – | – | – | – | 0.0424 | –
T233W | – | 0.0715 | – | 0.0184 | – | – | 0.0572 | 0.0736 | – | –
L235Y | – | 0.0691 | – | 0.041 | – | – | – | – | 0.0745 | –
K7W | – | – | 0.0718 | – | – | 0.0616 | 0.0622 | – | – | –
G8L | – | – | 0.0552 | – | – | 0.0638 | 0.0525 | 0.0785 | – | 0.0669
L61T | – | – | 0.0701 | – | – | 0.0509 | 0.0643 | – | – | 0.1
I84N | – | – | 0.0567 | – | – | 0.0553 | 0.0477 | 0.0507 | – | –

Variant | area with substrate ENDYFQS | area with substrate ENEYFQS | area with substrate ENFYFQS | area with substrate ENHYFQS | area with substrate ENMYFQS | area with substrate ENQYFQS | area with substrate ENTYFQS | area with substrate ENVYFQS | area with substrate ENNYFQS | area with substrate ENRYFQS
D91E | – | – | 0.0613 | – | – | – | – | – | – | 0.067
Q97D | – | – | 0.0652 | – | – | 0.0602 | – | 0.0661 | – | –
Q118C | – | – | 0.0568 | – | – | 0.0412 | – | 0.0836 | – | –
F163K | – | – | 0.0646 | – | – | – | – | – | – | –
T176Q | – | – | 0.0581 | 0.0638 | – | – | – | 0.0563 | – | –
N177Q | – | – | 0.0678 | – | – | 0.063 | – | – | 0.0629 | 0.0515
G213C | – | – | 0.0487 | – | 0.0602 | – | – | 0.045 | – | 0.0574
S4A | – | – | – | – | – | 0.0345 | – | 0.0411 | 0.0576 | –
R50N | – | – | – | – | – | 0.0604 | 0.0894 | – | – | –
Q97R | – | – | – | – | 0.0861 | 0.0666 | – | – | – | –
L99I | – | – | – | 0.0586 | – | 0.0508 | 0.0657 | – | 0.055 | 0.0614
S169Y | – | – | – | – | – | – | 0.0595 | 0.0424 | – | –
T181C | – | – | – | – | – | – | – | 0.0865 | – | 0.0652
T119L | – | – | – | 0.0476 | 0.0812 | 0.0625 | – | – | – | –
G153Q | – | – | – | 0.0552 | – | – | 0.0542 | – | – | –
G153S | – | – | – | 0.0628 | – | 0.0421 | – | – | 0.0529 | –
S182V | – | – | – | 0.0573 | – | 0.0549 | – | 0.08 | – | –
E223A | – | – | – | 0.0544 | – | – | – | 0.0824 | – | –
Q97T | – | – | – | – | 0.0741 | – | – | – | – | 0.0564

Same assay, conditions: temperature: 34 °C; time window: 0-4 h after rhamnose induction

Variant | area with substrate ENKYFQS | area with substrate ENGYFQS | area with substrate ENPYFQS | area with substrate ENWYFQS | area with substrate ENSYFQS | area with substrate ENYYFQS | area with substrate ENIYFQS
N206P | 0.0458 | – | – | – | – | – | –
L211I | – | 0.0825 | – | – | – | – | –
W212A | – | 0.0802 | 0.0497 | – | – | – | –
V217E | 0.0633 | – | – | 0.0596 | – | – | –
T233P | – | – | 0.0421 | 0.0575 | 0.0686 | – | –
F6A | 0.0598 | 0.0633 | 0.0567 | – | – | – | –
V57E | – | – | – | 0.104 | 0.0607 | 0.0527 | –
D82M | – | – | – | 0.0397 | – | – | 0.0566
I86C | 0.0613 | – | – | – | 0.0538 | – | 0.0807
F92K | – | – | – | 0.0252 | – | – | –
Q97G | – | – | – | – | 0.0781 | – | –
Q97L | 0.0818 | – | 0.0592 | – | 0.0629 | – | –
D128T | – | 0.065 | – | – | 0.0603 | – | 0.0847
S135L | – | – | – | – | – | – | 0.0422
G138P | – | 0.0571 | – | 0.0566 | – | – | –
I139T | 0.0548 | – | 0.0605 | – | – | 0.0422 | –
S171K | 0.0638 | 0.0634 | – | – | 0.0917 | – | –
N186H | – | – | – | – | 0.054 | – | –
V200D | – | – | – | – | – | – | 0.0673
L205Y | – | 0.0302 | 0.0379 | – | 0.0658 | – | 0.0719
S209W | – | 0.0647 | 0.0622 | – | – | 0.0539 | –
S209Y | – | – | – | – | – | 0.065 | –
G213T | – | 0.0561 | – | – | 0.061 | – | 0.0608
V220S | – | 0.0655 | – | – | 0.065 | – | –

Variant | area with substrate ENKYFQS | area with substrate ENGYFQS | area with substrate ENPYFQS | area with substrate ENWYFQS | area with substrate ENSYFQS | area with substrate ENYYFQS | area with substrate ENIYFQS
F226V | – | – | – | – | 0.0758 | 0.0515 | –
T233W | – | 0.0595 | – | – | 0.077 | – | –
L235Y | – | – | – | 0.0566 | 0.0568 | – | 0.102
K7W | – | 0.0521 | – | – | 0.0562 | – | –
G8L | – | 0.0588 | – | – | – | – | –
L61T | 0.0699 | – | – | – | 0.055 | – | –
I84N | – | 0.038 | – | – | 0.0989 | – | –
D91E | – | – | – | – | 0.0609 | – | –
Q97D | – | 0.0672 | – | – | 0.0721 | – | –
Q118C | – | – | – | – | 0.0586 | – | –
F163K | – | – | – | 0.0723 | 0.0934 | – | –
T176Q | – | 0.0842 | – | – | – | – | –
N177Q | – | – | 0.0668 | – | – | 0.0662 | –
G213C | – | 0.0498 | 0.0507 | 0.0732 | 0.0511 | 0.0596 | –
S4A | – | 0.0517 | 0.084 | – | – | 0.0705 | 0.0989
R50N | – | 0.0522 | – | – | 0.0437 | – | –
Q97R | – | 0.054 | – | – | – | – | –
L99I | – | 0.0635 | – | – | – | – | –
G138T | 0.0531 | 0.0665 | – | – | – | – | 0.0883
S169Y | 0.0534 | 0.0577 | – | – | – | – | –
T181C | – | 0.0599 | – | – | – | – | –
E223D | – | 0.042 | – | – | – | – | –
S182V | – | – | – | – | 0.0691 | – | –
Q97T | – | – | – | – | 0.0662 | – | 0.106
